# PubChem BioAssay AID485294 (National Center for Advancing Translational Sciences (NCATS), 2010)
# Screen size: about 370,000 compounds; about 150 (0.041%) were called active. The inconclusive results got no clear call from the source; some entries with a clear call stand among them for comparison. The call rests on the fitted dose curve; in most records, active means well fitted inhibition curve with a large enough effect; inconclusive means small, poorly fitted or top-dose-only effect; inactive means flat fitted curve, though single readings scatter. Potencies of inconclusive entries are left out as doubtful fits.
# Biological target: Beta-lactamase (Escherichia coli (strain K12)) (UniProt P00811)
# Chain of UniProt P00811 (P00811 whole entry, looked up): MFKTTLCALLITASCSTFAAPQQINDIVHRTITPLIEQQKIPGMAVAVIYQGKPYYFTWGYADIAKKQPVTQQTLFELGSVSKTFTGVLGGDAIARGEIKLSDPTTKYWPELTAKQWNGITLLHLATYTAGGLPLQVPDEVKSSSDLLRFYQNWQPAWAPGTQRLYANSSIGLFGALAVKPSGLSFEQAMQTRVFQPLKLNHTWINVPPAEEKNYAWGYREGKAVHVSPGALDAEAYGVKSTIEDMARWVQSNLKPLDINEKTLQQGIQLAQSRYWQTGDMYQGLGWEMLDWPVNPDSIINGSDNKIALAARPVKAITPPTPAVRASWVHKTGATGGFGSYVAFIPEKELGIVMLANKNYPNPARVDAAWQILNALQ
# Experiment: qHTS Inhibitors of AmpC Beta-Lactamase (assay with detergent); further: nearly all actives have a fitted effect of over 25% in size;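 on activity change, negative = inhibition: 0% = no-compound wells and -100% = no-enzyme wells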
# Details: AmpC hydrolysis of nitrocefin, absorbance 480 nm, 0.01% Triton; activity change, negative = inhibition: at 114 µM (top of the series)
# How it was run: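 AmpC (5.3 nM in the dispensed reagent) in 20 mM phosphate pH 7.0 with 0.01% (detergent screen) or 0.0001% Triton X-100 was preincubated with compounds for 15 min at room temperature. Nitrocefin was then added from an 800 uM solution, and hydrolysis was followed at 480 nm.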
# Potency means the concentration at half of the fitted maximal effect; tags describe the fitted curve by direction and shape.
SMILES,Potency,"activity change, negative = inhibition"
Cc1sc(-n2c(C)cc(/C=N/n3cnnc3)c2C)c(C#N)c1C,"inconclusive [inhibitor, full curve]",–
N=c1c(C(=O)NCC2CCCO2)cc2c(=O)n3ccccc3nc2n1Cc1ccccc1 (stereo not drawn),–,inactive: 0.0512%
C=CCN1N=C(c2ccc(NC(=O)c3ccccc3)cc2)CSC1=O,–,inactive: -4.43%
CCOC(=O)C1CN(C(C)(C)C)C(=O)C1=O (stereo not drawn),"inconclusive [inhibitor, single point]",–
CC1(OCON)CCCc2ccccc21 (stereo not drawn),"inconclusive [inhibitor, full curve]",–
CCn1c(SCC(=O)Nc2sc(C)c(C)c2C#N)nnc1C(C)C,"inconclusive [inhibitor, single point]",–
CCCCCn1c(SC(C)C(C)=O)nc2c1c(=O)[nH]c(=O)n2C (stereo not drawn),"inconclusive [inhibitor, partial curve]",–
CC1(C)CC(=O)C(C=NCCN2CCN(C(=S)NC3CCCCC3)CC2)=C(O)C1,"inconclusive [inhibitor, full curve, poor fit]",–
N#Cc1nc(COc2ccccc2)oc1NCCN1CCOCC1,"inconclusive [inhibitor, partial curve, poor fit]",–
CC(C)CCOc1ccc(C2(C)NC(=O)N(CN3CCOCC3)C2=O)cc1 (stereo not drawn),"inconclusive [inhibitor, full curve, poor fit]",–
CCn1c(SCC(N)=O)nc2ccccc2c1=O,"inconclusive [inhibitor, full curve, poor fit]",–
CCOc1ccc(/C=N\NC(=O)c2c(C)nc3cc(C)ccn23)cc1,"inconclusive [inhibitor, full curve]",–
CCOC(=O)c1cc2c(C)n(-c3ccc(C)cc3)c(C)c2ccc1=O,–,inactive: 0.59%
Cc1cc(C)nc(NS(=O)(=O)c2ccc(N3Cc4ccccc4C3=O)cc2)n1,–,inactive: -8.91%
CC(=O)N1CCc2[nH]c3ccccc3c2C1,"inconclusive [inhibitor, partial curve]",–
Cc1c(C(=O)Nc2ccccc2C(=O)N2CCOCC2)cccc1[N+](=O)[O-],"inconclusive [inhibitor, full curve, poor fit]",–
COc1ccccc1C(=O)Nc1nnc(S(=O)(=O)N2CCOCC2)s1,–,inactive: 2.15%
CC1CCC2(CC1)C(Nc1cccc(Cl)c1)=NC(=S)N2CC#N (stereo not drawn),"inconclusive [inhibitor, full curve, poor fit]",–
COc1ccc2nc(NC(=O)CSc3ccccc3)sc2c1,–,inactive: 1.67%
O=C(CSCc1ccccc1Cl)Nc1ccc(C(=O)O)cc1,"inconclusive [inhibitor, partial curve, poor fit]",–
Cc1ccsc1/C=N/NC(=O)C(N)=O,–,inactive: -2.91%
Cc1cccc(C(=O)NCc2nnc(SCC(=O)NC3=NCCS3)n2C)c1,–,inactive: 3.31%
CCC(C)[C@H](NS(=O)(=O)c1ccc(C)cc1)C(=O)N1CCC(C(=O)N2CCC(C(=O)OC)CC2)CC1 (stereo partly drawn),"inconclusive [inhibitor, full curve, poor fit]",–

SMILES,Potency,"activity change, negative = inhibition"
CN1CCN(c2ccccc2NC(=O)Cc2ccc(Cl)cc2)CC1,"inconclusive [inhibitor, full curve, poor fit]",–
COc1ccc(C(=O)NCC(=O)N2CCN(C(=O)c3ccco3)CC2)cc1OC,"inconclusive [inhibitor, single point]",–
O=C(CN1CCCCC1)N1c2ccccc2CCc2ccccc21,–,inactive: -4.49%
COc1ccc2oc(C(=O)OCC(=O)N3C(C)CCCC3C)c(C)c2c1 (stereo not drawn),"inconclusive [inhibitor, full curve]",–
CCCCCCC12CCC(C(=O)O)(CC1)CC2,"inconclusive [inhibitor, single point]",–
Cc1cc(Br)ccc1NC(=O)CN(C)C(=O)c1ccc(-n2cncn2)c([N+](=O)[O-])c1,"inconclusive [inhibitor, full curve]",–
CCOCCn1c(SCc2ccc(C)cc2)nc2c1c(=O)[nH]c(=O)n2C,"inconclusive [inhibitor, full curve, poor fit]",–
O=C(N/N=C/c1ccccc1)c1ccc(OCc2ccccc2)cc1,–,inactive: -0.502%
O=C(Nc1nnc(S(=O)(=O)N2CCOCC2)s1)c1ccc(Cl)cc1,"inconclusive [inhibitor, full curve, poor fit]",–
COc1ccc(C(=O)Nc2nc(C)cc(C)n2)cc1[N+](=O)[O-],"inconclusive [inhibitor, partial curve, poor fit]",–
Cc1cc(C)c(NC(=O)NC(=O)c2cccc(F)c2)c(C)n1,–,inactive: -1.72%
N/C(=N/OCC(=O)Nc1cccc2ccccc12)c1nonc1N,"inconclusive [inhibitor, full curve, poor fit]",–
COc1ccccc1N1CCN(C(=O)CSc2nc3ccccc3[nH]2)CC1,"inconclusive [inhibitor, single point]",–
CCCCn1c(C)c(C(=O)OCC)c2c(CN3CCOCC3)c(O)ccc21,"inconclusive [inhibitor, single point]",–
CCN(Cc1ccccc1)C(=O)CC1Oc2ccccc2NC1=O (stereo not drawn),"inconclusive [inhibitor, partial curve, poor fit]",–
Cc1ccc(CNC(=O)CCc2nc(-c3cccs3)no2)cc1,"inconclusive [inhibitor, partial curve, poor fit]",–
O=C(Cc1ccccc1)Nc1nc(-c2cccs2)cs1,–,inactive: -4.92%
COC(=O)C1=C(C)N(Cc2ccccc2)C(=O)/C1=C\c1ccco1,–,inactive: 2.28%
O=S(=O)(Nc1ccc2c(c1)OCCO2)c1cccc(F)c1,"inconclusive [inhibitor, full curve, poor fit]",–
CCc1nn(Cc2ccc(Cl)cc2)c(=O)c2cc3cc(C)ccc3n12,–,inactive: 20.4%
CC1(c2ccccc2Cl)NC(=O)N(CC(=O)c2ccc3c(c2)OCO3)C1=O (stereo not drawn),"inconclusive [inhibitor, partial curve, poor fit]",–
COc1cccc(CNCc2cc(OC)cc(OC)c2)c1,"inconclusive [inhibitor, full curve, poor fit]",–
CCCc1cc(C(=O)Nc2ccc(C)cc2)no1,"inconclusive [inhibitor, full curve, poor fit]",–

SMILES,Potency,"activity change, negative = inhibition"
CCC(=O)N[C@@H]1CC(C(C)(C)NC(=O)CC)CC=C1C (stereo partly drawn),"inconclusive [inhibitor, full curve, poor fit]",–
CCOC(=O)c1cc2c(C(F)(F)F)cc(-c3cccnc3)nc2o1,"inconclusive [inhibitor, full curve]",–
CCOC(=O)c1c(C)[nH]c(C(=O)Cn2nnc(-c3ccc(Cl)cc3)n2)c1C,"inconclusive [inhibitor, full curve]",–
Nc1ncc(-n2cncn2)c(-c2ccccc2)n1,"inconclusive [inhibitor, full curve, poor fit]",–
COc1ccc(S(=O)(=O)N2CCN(CC(=O)c3[nH]c(C)c(C(C)=O)c3C)CC2)cc1OC,"inconclusive [inhibitor, full curve, poor fit]",–
CCOc1ccc(NC(=O)c2ccccc2NC(=O)c2cccnc2)cc1,"inconclusive [inhibitor, full curve, poor fit]",–
COc1ccc(C2Nc3ccccc3C(=O)N2c2ccc(C)cc2)cc1Cn1cc([N+](=O)[O-])cn1 (stereo not drawn),–,inactive: -7.55%
COc1ccc(N(CC(=O)Nc2ccccc2F)S(=O)(=O)c2ccc(OC)c(OC)c2)cc1,"inconclusive [inhibitor, partial curve, poor fit]",–
CCSC1=NC2(CCN(C(=O)NC3CCCCC3)CC2)N=C1c1ccc(Cl)cc1,–,inactive: 2.84%
CCOC(=O)c1[nH]c2ccc(OC)cc2c1NS(=O)(=O)c1ccc(OC)cc1OC,"inconclusive [inhibitor, full curve, poor fit]",–
CCC(C)N1C(=O)/C(=C\c2cnc(N(C)C)nc2)C(=O)NC1=S (stereo not drawn),–,inactive: -1.13%
Cc1ccc2sc(NC(=O)c3ccc4c(c3)OCCO4)nc2c1C,–,inactive: -2.53%
CCN1CCN(C(=S)NCC(C)C)CC1,"inconclusive [inhibitor, partial curve, poor fit]",–
COc1ccc2c(c1)c1c(c(=O)n(-c3ccc(F)c(Cl)c3)c(=O)n1Cc1ccccc1C)n2C,–,inactive: -2%
COc1ccc(NC(=O)CN2c3cccc4cccc(c34)S2(=O)=O)c(OC)c1,"inconclusive [inhibitor, full curve, poor fit]",–
COc1cccc(CN2CCC(Oc3ccc(C(=O)NCc4ccccn4)cc3)CC2)c1O,"inconclusive [inhibitor, full curve, poor fit]",–
CSc1nc(-c2ccc(Cl)cc2)nc(N)c1C#N,–,inactive: -0.535%
CCN(CC)C(=O)CN(c1cccc(OC)c1)S(=O)(=O)c1ccc(C)cc1,"inconclusive [inhibitor, single point]",–
CC1CCC(NC(=O)CN(C)CC(=O)Nc2ccc(F)cc2)CC1 (stereo not drawn),"inconclusive [inhibitor, single point]",–
CCc1cc2c(=O)c(-c3cscn3)coc2cc1OC,"inconclusive [inhibitor, full curve, poor fit]",–
CN(C)S(=O)(=O)c1cccc(NC(=O)c2cc3c(=O)n4ccccc4nc3s2)c1,"inconclusive [inhibitor, partial curve, poor fit]",–
OC(CNCCCCNCC(O)C(F)(F)F)C(F)(F)F (stereo not drawn),"inconclusive [inhibitor, full curve, poor fit]",–
